Experimental data as given in article PMC12136788.
Some of the results follow.

B1: chr3:179287964:179287965:+_ENSG00000136518_ENST00000429709|hu_hu|hu_hu_hu_mus_True|38_68 (ssRNA)
RNA: GGGAGUUCUACAGUCCGACGAUCCUUGAGUGGUGAGAUGGCCUCCAUGUUCUCCCUGGGCACGCGGAGAGCAUUAGUGUCUAUGUAGUAGGUGGGCCCGCCUUGUUUGCCUUUGUCACCAUCAAUCUCCAUCAUUGUACUUCCCAACAGAGGAUUGAGCAUCA
B2: chr7:54825262:54825263:-_ENSG00000132432_ENST00000352861|hu_hu|hu_hu_hu_mus_False|48_68 (ssRNA)
RNA: GGGAGUUCUACAGUCCGACGAUCCUGCCGGCUGGGCUCCACAAACUGCAUUACCUGAUCCAUGUUUUACCCAACCGGGAUUGAGAGUGCCAGGGACCGUAGCUCAGGAGAGAACCGAGCCCAACGGAACCGGAAGCUGGCAACCAACAGAGGAUUGAGCAUCA
B3: 4173556_4173676_2911_3pUTR_ENSG00000132388_ENST00000396981|human|control|control (ssRNA)
RNA: GGGAGUUCUACAGUCCGACGAUCCACCUCAACAGAUUGCUAGCAGAAUUAUAGCAAUAGGAGAGCAAAAUUUGAACUCCGUUUUGCCACAAGCAACCACCAUGUGAACAAGUUCUGAUUUUAAAAGGGAGGGAUCCCAUCUCUCAACAGAGGAUUGAGCAUCA
B4: chr7:75932113:75932114:+_ENSG00000106211_ENST00000248553|hu_hu|hu_hu_hu_mus_False|48_88 (ssRNA)
RNA: GGGAGUUCUACAGUCCGACGAUCCUGCGACCACUCAUCGGGCAACCGGGGCAGCCCGAAAGCUUGAUCGAAGAGGCGGCUGUGUGCGUACCAGUCGUCCCGGAAUGGUUCCCAGCUCGGGCUCCGCAGCAGCGAGAAGGGCACCAACAGAGGAUUGAGCAUCA
B5: chr16:45382771:45382772:-_ENSMUSG00000022661_ENSMUST00000163230|mus_mus|mus_mus_mus_hu_True|58_78 (ssRNA)
RNA: GGGAGUUCUACAGUCCGACGAUCCUGGGUCAUGUUAUAAGACAAAUGGACAGGGAGAGCAUGCUUUUCAAAAAAUGUGAACUACUCUCUAAGACUAACAAUAUUUAUCUAGCUAUAAAAAUAAGUUAAAUGAAUAAGUUAAGACAACAGAGGAUUGAGCAUCA
B6: 38089932_38090052_906_5pUTR_ENSMUSG00000022812_ENSMUST00000023507|mouse|control|control (ssRNA)
RNA: GGGAGUUCUACAGUCCGACGAUCCGGGUGAACCGGAGGGCAGCGCAGUCGCGAGUCAGCGGCGGGCGGUGGCGGCGGCUCCUCUCCUCAUUGCGCCAGGAGCAGCUGCAGGCGGUGGCUGGAUCCAGCGGCCAUGGCGGCAGCCAACAGAGGAUUGAGCAUCA
B7: chr1:35656432:35656433:-_ENSG00000116560_ENST00000357214|perfect_dup|motif|central (ssRNA)
RNA: GGGAGUUCUACAGUCCGACGAUCAGAUCUUCCACGAUCAUCCACUAUUACAACAGCCCUUUCAAUAGGACCAAAUUGGCGGAAGGCUUCUUCCAACAGUUCAUUGGAAACAUAAGGUGAAAGAUUACGAACAGAAAGGGCAGCCAACAGAGGAUUGAGCAUCA
B8: chr5:67718940:67718941:+_ENSMUSG00000029221_ENSMUST00000113676|mus_mus|motif|central (ssRNA)
RNA: GGGAGUUCUACAGUCCGACGAUCAGUAAAGGACUCGGUGUCAUCGUGGGGACUUCGCCGCCUGAUUUUUCGAAGUUGUUCGGAAUCACUGGACUUAAGGCAGAACUCGUUUAUUGCUCUCACUCCAGUGAUGAAAUUAUUCUUCAACAGAGGAUUGAGCAUCA
B9: chr14:88400820:88400821:-_ENSG00000054983_ENST00000261304|hu_mus|FALSE|FALSE (ssRNA)
RNA: GGGAGUUCUACAGUCCGACGAUCGAGCUACCUUGGUAUUAGUGCGAAGGCUGCAAGGGCAGAACCCGCCCAAGCACCCCUGAAGGAUGGGACUGAACAACCGUGGGCCUUGAGAGCUACCACAGAGAGUGUCAAAGACUACCUCAACAGAGGAUUGAGCAUCA
B10: 151558971_151561332_1860_3pUTR_ENSMUSG00000034021_ENSMUST00000016569|mouse|control|control (ssRNA)
RNA: GGGAGUUCUACAGUCCGACGAUCCUGUUUCCGUAUUUUCUCAUCAUCUUCCAACACUUGUGUGAACUUCUUCAUGAAGUCUUGGGCCUUACCAGGAUCUGGCAAAUUUCUUGUGAUAACCAUCACUUUAGAAAAUAUGGCCUUCAACAGAGGAUUGAGCAUCA
B11: chr1:60038506:60038507:+_ENSMUSG00000041040_ENSMUST00000036540|mus_mus|FALSE|FALSE (ssRNA)
RNA: GGGAGUUCUACAGUCCGACGAUCAGCUUCCUCAAUGGGUUCUGGUGGUGCAUGGAGGGAGGCGGAUGGCAGGACUGUACUGGUUCCUCGAGAUACCCGCUCUUGCUCUGUGUUUGUAGACAGGGAGGCCAUAGAGAUGGGCUGCAACAGAGGAUUGAGCAUCA
B12: chr19:30213842:30213843:-_ENSMUSG00000024827_ENSMUST00000025778|mus_mus|FALSE|FALSE (ssRNA)
RNA: GGGAGUUCUACAGUCCGACGAUCAAUGUGCUUCAGCCCCUGGGAUCCAUGGUAAAUGGCGAACAUGGCAGCCAUGUUGGCUAAAAGGGCCUGAGCCGUGCAGAUGUUGCUGGUGGCUUUGUCUCUCCGGAUGUGUUGUUCUCUCAACAGAGGAUUGAGCAUCA
B13: chr17:24832259:24832260:-_ENSMUSG00000040888_ENSMUST00000046839|mus_mus|FALSE|FALSE (ssRNA)
RNA: GGGAGUUCUACAGUCCGACGAUCCCUUAUGUCUUCCGCACAUUCCUCGCAGGGGUAAAACUUGGAAAAUAUAUGUAUGAACUGGGCCAUAUCCUGUUGUUGUUCUGGCGUGGGCCUGUCCGGGUAAUAGGCGGCCAGCGUAUGCAACAGAGGAUUGAGCAUCA
B14: chr10:44834900:44834901:+_ENSMUSG00000019849_ENSMUST00000099858|mus_mus|FALSE|FALSE (ssRNA)
RNA: GGGAGUUCUACAGUCCGACGAUCGAAUGUGAACACUGUGCCCUCGUUGGUUACGUAGUCGUAUUCUCCUUCAAAGUUGUCUAUCAGUUUUACCCACUUCAGGAUUCCGGUGAUACCAUUGGGUUCUUGCUGGAGGUCACAGUACAACAGAGGAUUGAGCAUCA
B15: 108160877_108160997_3304_3pUTR_ENSMUSG00000068747_ENSMUST00000102632|mouse|control|control (ssRNA)
RNA: GGGAGUUCUACAGUCCGACGAUCAGCCACUGGCACAGCACAAAGUACAGCCUGAAAGAGCUCAGAAGCAGCCAGUUUUGUCUUUAAUAGGUGUCAGAGCUAGUCAAUUCUCUGCCUCCCUCUUGCCACAAGUUAAAAAUAUUGCAACAGAGGAUUGAGCAUCA
B16: chr3:52290438:52290439:-_ENSG00000164091_ENST00000296490|hu_hu|FALSE|FALSE (ssRNA)
RNA: GGGAGUUCUACAGUCCGACGAUCUAUAUGCGUAUCUGUAUGCACACAGAUGUAUUUAAAUGAAGGUGCAUACACUGUGCUAAAAUACAAACAACAGAAAUCAAAGGUCAUAUAUAAAAACGCUAAAUAUGACAUAUAACACAGCAACAGAGGAUUGAGCAUCA
B17: chr19:8913615:8913616:-_ENSMUSG00000071658_ENSMUST00000096259|mus_hu|mus_mus_mus_hu_False|38_108 (ssRNA)
RNA: GGGAGUUCUACAGUCCGACGAUCAGGGGGGCACCAACUUCUGCCUGAAAUGGGUGCCCCACCCAGUAGGGAGUUGCAGCUGAAAGUAUCUGAUGCACUGACAGUUACUAUACGAAAGGAGGCCCCUGGGGAGGGCCAGGCCAGCAACAGAGGAUUGAGCAUCA
B18: chr12:42180722:42180723:-_ENSMUSG00000036295_ENSMUST00000043884|mus_hu|mus_mus_mus_hu_True|68_88 (ssRNA)
RNA: GGGAGUUCUACAGUCCGACGAUCCUGUAGGAGAAGAAUCUGUGUGUCGGCAGGCAAUCUGGCUGGGAAGUUUAAAAGACCUAAAUCAUUACAAUCCACUGUAGAUGCUUCCAUAUAAAUGGAUCUGGGUGUAAACCAAGGCCUCAACAGAGGAUUGAGCAUCA
B19: chrX:153712385:153712386:-_ENSG00000102178_ENST00000369660|hu_hu|motif|central (ssRNA)
RNA: GGGAGUUCUACAGUCCGACGAUCUUAAACAAAUUGCCUUUAUUGUUAAACCAAUGAUUGGAUAUCAGAAACAGCCGGGCGGAUAUAGCUCCUUUUGGAUAAAAGUAGAAGCCUCACAUUCACCUUUAAUGUUAUUUCACUUUUCAACAGAGGAUUGAGCAUCA
B20: chr2:9725471:9725472:-_ENSG00000134308_ENST00000238081|hu_mus|motif|central (ssRNA)
RNA: GGGAGUUCUACAGUCCGACGAUCUGAAAAGCAGACUGAGACAGUUUCCAAUUCCACACAAGUAAAUGUUAAGUUGUCUCGGAGCAACUGCAUGAUGAGGGUGCUGUCUUUGUAGGAGUCUUCGUUCAGUGUAUCAAGCUCUGCCAACAGAGGAUUGAGCAUCA
B21: chr16:94664741:94664742:+_ENSMUSG00000040785_ENSMUST00000117648|mus_hu|mus_mus_mus_hu_False|28_68 (ssRNA)
RNA: GGGAGUUCUACAGUCCGACGAUCUGGUACUGAUCUUGGUAGCUGAUAUUCAGGAGAAAGGCUGGCCAAAGGUGUGUAUAUGCUGGUGUACUGGGGCAAACCUGGUACCAUGUUAAUGUAUGCUGGCGGUGUCUGGGUGAUAUCCAACAGAGGAUUGAGCAUCA
B22: 60969276_60970736_1488_3pUTR_ENSMUSG00000042506_ENSMUST00000041683|mouse|control|control (ssRNA)
RNA: GGGAGUUCUACAGUCCGACGAUCCAUUGUUGAGACUGUCCAGGGGCUGCUGGUAUUGCCCAUUCAUCCUGCUCUCUUUGCUGGAGGCCAUGAAGGGCGUCAUGUCCAGUUCCAGGGGAAAAGACACAUAUGUGGUGAUCUUCCCAACAGAGGAUUGAGCAUCA

The binders below were run against T1, UNK ZnF1-3 (human, UniProt Q9C0B0 31-174) (assay: nsRBNS (natural sequence RNA bind-n-seq); RBNS binding buffer (assumed for nsRBNS): 25 mM Tris pH 7.5, 150 mM KCl, 3 mM MgCl2, 0.01% Triton X-100, 500 ug/ml BSA, 20 U/ml SUPERase-In, 4 C; UNK is unkempt and MSI1 is Musashi-1; names of the RNAs are library labels; protein concentration not given here; high values mean tight binding).
T1 sequence: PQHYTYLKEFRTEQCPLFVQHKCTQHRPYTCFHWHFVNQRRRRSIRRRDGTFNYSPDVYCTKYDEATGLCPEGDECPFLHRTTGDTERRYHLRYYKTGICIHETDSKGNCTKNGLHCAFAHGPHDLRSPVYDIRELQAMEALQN

Row | Binder | binding signal [enrichment R]
1 | B1 | 0.728
2 | B2 | 1.31
3 | B3 | 1.8
4 | B4 | 0.728
5 | B5 | 2.67
6 | B6 | 0.831
7 | B7 | 1.13
8 | B8 | 0.516
9 | B9 | 1.62
10 | B10 | 0.635
11 | B11 | 1.47
12 | B12 | 0.84
13 | B13 | 0.918
14 | B14 | 0.566
15 | B15 | 1.99
16 | B16 | 0.722
17 | B17 | 0.832
18 | B18 | 1.22
19 | B19 | 0.694
20 | B20 | 1.09
21 | B21 | 1.02
22 | B22 | 0.764
